Among all 46,000 compounds or so, about 60 (0.1%) were called active. Not shown: some 3% with an inconclusive outcome. Calls come from the whole dose curve; as a rule, active = well fitted inhibition curve with a large enough effect; inconclusive = small, poorly fitted or top-dose-only effect; inactive = no such curve, though single readings can be large or run the other way. The list shows a part of the results.
Assay: Primary qHTS assay for Inhibitors of ovarian cancer metastasis using an organotypic tumor microenvironment (TME) model.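 For activity change, negative = inhibition: plate controls were DMSO wells for no effect and tomatine positive control wells for full effect.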 Note: nearly all actives have a fitted effect of over 65% in size.
Conditions: SKOV3ip1-GFP adhesion/invasion on 3D omental model, fluorescence; series mostly up to 45.8 µM; activity change, negative = inhibition: at the top concentration
Summary of the method: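 qHTS, 4-pt dose (0.36-46 umol/L); SKOV3ip1-GFP, 1,200 cells/well, no FBS; primary omental fibroblast/mesothelial co-culture 48 h pre-grown; 2 h RT + 16 h 37 C; PBS wash, 4% PFA; GFP count 488/509 nm.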

Activity change, negative = inhibition, inactive:
O=C(Cn1ncc2ccsc2c1=O)N1CCN(c2ccc(F)cc2)CC1 5.82%, Cc1ccc(-n2ncc3c(N4CCC(C(N)=O)CC4)ncnc32)cc1 6.05%, COc1ccc(CCNC(=O)CSc2cn(CCNC(=O)c3cccc(C(F)(F)F)c3)c3ccccc23)cc1OC 6.43%, Cc1ccc(NC(=O)Cc2coc3ccc(C(C)C)cc23)c(C)c1 -0.276%, CC1CCc2c(sc(NC(=O)c3cc(-c4cccc(Cl)c4)on3)c2C(N)=O)C1 (stereo unspecified) 4.65%, COc1cccc(CNC(=O)C(C)n2ncn3cccc3c2=O)c1OC (stereo unspecified) -16%, CCOc1ccc(-c2cn(-c3ccc(C)cc3)c(SCC(=O)Nc3ccc(C)cc3)n2)cc1 6.43%, O=S(=O)(Nc1nc2ccccc2nc1Nc1ccccc1Br)c1ccccc1 -5.38%, Fc1ccc(-c2ccc(CNCCSc3nnnn3-c3ccccc3)o2)cc1 -0.941%, O=C(NCc1ccc(F)cc1)C1CCCN(c2ncnc3onc(-c4ccc(F)cc4)c23)C1 (stereo unspecified) -15.4%, CCOc1ccccc1CNC(=O)c1ccc(-c2nc(CSc3ccc(C)cc3)c(C)o2)cc1 -7.96%, COc1ccc(/C=C\C(=O)NC2CC(=O)N(c3ccc(F)cc3)C2)cc1OC (stereo unspecified) -19.6%, COc1cccc(-n2c(SCC(=O)Nc3cccc(Cl)c3)nc3c(oc4ccccc43)c2=O)c1 76.2%, O=C(CSc1cn(CCNC(=O)c2ccccc2F)c2ccccc12)Nc1ccccc1F 5.67%, Cc1c(NC(=O)CC(C)C)cccc1-c1nc2cccnc2s1 -14.2%, CCc1ccc(NCc2cc3ccc(OC)cc3n(CC(=O)Nc3ccc(C(C)C)cc3)c2=O)cc1 -8.3%, COc1ccc(Cl)cc1NC(=O)CSC1=Nc2ccccc2C2=NC(CC(=O)NC3CCCCC3)C(=O)N12 (stereo unspecified) -5%, Cc1ccc(Nc2c(-c3ccsc3)nc3cccc(C)n23)cc1 1.54%, COc1ccccc1NC(=O)C1=C(C)Nc2nc(SCc3ccc(Cl)cc3)nn2C1c1ccccc1Cl (stereo unspecified) 6.43%, CC(NC(=O)C1CCN(C(=O)c2ccc(-n3ccc4ccccc43)s2)CC1)c1ccccc1 (stereo unspecified) -3.98%, Cc1ccc(NC(=O)Cn2nnc(-c3nc(-c4ccncc4)no3)c2N)c(C)c1 -7.66%, COc1cc(C2NC(=O)N(C)C3=C2C(=O)N(c2cccc(Cl)c2)C3)ccc1O (stereo unspecified) -17.3%, CC1CCN(C(=O)c2cc3c(=O)n(C)c4ccccc4c3s2)CC1 24.1%, CCOC(=O)C1CCN(C(=O)CN2c3ccc(C(C)C)cc3-c3ccccc3S2(=O)=O)CC1 -2.13%, Cc1ccc(CNC(=O)c2ccc(CSCc3ccccc3Cl)o2)cc1 -7.53%, Cc1cccc(CNC(=O)C(=O)Nc2ccccc2C)c1 9.54%, Fc1ccccc1-n1ncc2c1ncn1nc(-c3ccccc3Cl)nc21 4.73%, COc1ccccc1CNC(=O)CCC1N=C2c3ccccc3N=C(SCC(N)=O)N2C1=O (stereo unspecified) 5.41%, CC(=O)c1cccc(NC(=O)C2=CC(c3ccc4c(c3)OCO4)=NS(=O)(=O)N2C)c1 -4.13%, Cc1ccc(NC(=O)c2c(NC(=O)Cc3ccccc3)sc3c2CCC3)cc1 0.597%, CCN1C(=O)c2ccccc2Sc2ccc(NC(=O)Nc3ccccc3OC)cc21 -3.81%, COC(=O)Cc1c(C)c2cc3c(c(C)c2oc1=O)OCN(CCc1ccccc1F)C3 2.59%, CCc1ccc(CNC(=O)C2CCN(c3nc4ccccc4nc3C(F)(F)F)CC2)cc1 -14.7%, COc1ccc(Cn2c(CCC(=O)Nc3cccc(OC)c3)nc3cccnc32)cc1 -5.5%, CC(=O)N1CCc2cc(CNC(=O)Nc3cc(Cl)ccc3C)ccc21 1.92%, Cc1ccc(S(=O)(=O)NCC(c2ccc(N(C)C)cc2)N2CCc3ccccc32)cc1C (stereo unspecified) 6.84%, Cc1cccc(C)c1NC(=O)CSc1nc2ncccc2o1 -4.57%, COc1cccc(CNc2nccn(-c3cc(C)cc(C)c3)c2=O)c1 1.16%, COc1ccc(NC(=O)Cn2c(=O)n(Cc3ccco3)c(=O)c3cc(OC)c(OC)cc32)cc1 7.96%, Clc1ccc2nc(NCc3ccccc3)c3nncn3c2c1 -9.24%, CCSc1ncc(Cl)c(C(=O)Nc2ccc(S(=O)(=O)N3CCC(C)CC3)cc2)n1 2.51%, COCCn1c(CCC(=O)Nc2ccc(C)c(Cl)c2)nc2cccnc21 11.3%, Cc1ccc(-n2ncc(C(=O)NCCN3CCOCC3)c2C2CCN(C(=O)OC(C)(C)C)CC2)c(C)c1 17.4%, Cc1ccc(NC(=O)CSC2=Nc3ccccc3C3=NC(Cc4ccccc4)C(=O)N23)cc1C (stereo unspecified) 2.03%, CCCCN(CCCNC(=O)c1ccc(Sc2ccc(Cl)cc2)c(NC(C)=O)c1)c1ccccc1 -2.11%, Cc1cc2c(cc1S(=O)(=O)CCC(=O)N1CCCC(C)C1)OCC(=O)N2 (stereo unspecified) -6.26%, O=C(NC(=O)c1ccccc1)Nc1ccc(-n2nc(C(F)(F)F)cc2C(F)(F)F)cc1 4.64%, CCCCn1c(=N)c(S(=O)(=O)c2ccc(Cl)cc2)cc2c(=O)n3cccc(C)c3nc21 -6.55%, CC(C)(C)OC(=O)N1CCC(c2c(C(=O)NCc3ccccc3)cnn2-c2ccccc2)CC1 6.84%, O=C(c1ccc2c(c1)CCN2S(=O)(=O)c1ccccc1)N1CCN(c2cccc(Cl)c2)CC1 5.35%, CCOC(=O)CNc1nc2ccccc2n2c(C)nnc12 -13.6%, Cc1ccc(CNC(=O)c2cnc(N3CCCCC3)c3ccccc23)cc1 -15.1%, CCc1ccc(NC(=O)CSc2nc3c(sc4ccccc43)c(=O)n2CCCOC)cc1 -7.77%, CCOc1ccccc1CNC(=O)CN1C(=O)CSc2ccc(S(=O)(=O)N3CCOCC3)cc21 -1.05%, COc1ccc(OC)c(NC(=O)Cn2c(=O)n(CC3CCCO3)c(=O)c3cc(OC)c(OC)cc32)c1 (stereo unspecified) 1.99%, COc1ccc(NC(=O)CN(C)S(=O)(=O)c2ccc3c(c2)CCC(=O)N3)c(OC)c1 0.796%, O=[N+]([O-])c1ccc(S(=O)(=O)NCc2nc3cccnc3n2Cc2ccccc2Cl)cc1 -0.198%, Cc1ccc(C)c(OCCn2cc(C(=O)c3cccs3)c3ccccc32)c1 -0.758%, Cc1c(C(=O)OCC2CCCCC2)[nH]c2c1C(=O)CC(c1ccc(F)cc1)C2 (stereo unspecified) 2.04%, COCc1cc(C)nc2sc(C(=O)Nc3ccc(OC(F)(F)F)cc3)c(N)c12 -8.39%, O=c1nc2c(-c3ccc(F)cc3Cl)n[nH]n2c2ccccc12 16.5%, Cc1ccc(C(=O)O)cc1-n1c(C)ccc1-c1ccccc1 -9.16%, CCc1ccccc1NC(=O)CN(c1cccc(C)c1C)S(C)(=O)=O -9.19%, O=C(CSc1nncn2c1cc1occc12)Nc1ccccc1C(F)(F)F -0.472%, Cc1cccc2sc(N3CCN(C(=O)CS(=O)(=O)c4ccc(F)cc4)CC3)nc12 -9.97%, Cc1ccc(Cl)cc1-n1ncc2c(NC3CCCCC3)ncnc21 2.91%, N#Cc1cccc(Nc2ncnc3c2cnn3-c2cccc(Cl)c2)c1 -7.56%, COc1cc(OC)c2c(C)c(CC(=O)NCCc3ccccc3OC)c(=O)oc2c1 -6.78%, Cc1cc(C(=O)N2CCN(c3ccc(F)cc3)CC2)c2c(C)nn(-c3cccc(Cl)c3C)c2n1 -9.29%, CCc1ccc(S(=O)(=O)c2cnc3ccc(OC)cc3c2N2CCCC(C)C2)cc1 (stereo unspecified) 4.78%, CCCc1nc2nc(C)c(NS(=O)(=O)c3ccc(F)cc3)c(=O)n2[nH]1 -0.475%, Cc1ccc(C)c(NC(=O)Cn2nnc(C(=O)NCCc3ccccc3)c2N)c1 -4.19%, CCOC(=O)c1ccc(NC(=O)C(CC)Sc2nnc3c4ccccc4n(C)c3n2)cc1 (stereo unspecified) -4.19%

outcome, inactive:
O=C(Cn1c2ncccc2c(=O)n1-c1ccccc1)NCc1ccccc1Cl, COc1ccc(CNS(=O)(=O)c2cc3c4c(c2)CCN4C(=O)CC3)cc1, O=C(CSc1nc2c([nH]c3ccccc32)c(=O)n1-c1cccc(Cl)c1)NCC1CCCO1 (stereo unspecified), Cc1ccc(COc2ccc(-c3cc(C(F)(F)F)n4nc(C)cc4n3)cc2)cc1, O=C(CSc1nc2c(sc3ccccc32)c(=O)n1CCCC(=O)NC1CCCC1)Nc1ccc(F)cc1, CS(=O)(=O)c1oc(-c2ccc(F)cc2)nc1S(=O)(=O)c1ccc(Cl)cc1, COc1ccc(-n2c(=O)c3c(C)c(C)sc3n(CC(=O)NCc3ccc(C)cc3)c2=O)c(OC)c1, CCOC(=O)CNC(=O)c1ccc(-c2nn(C)c(=O)c3ccccc23)cc1, Cc1ccc(NC(=O)c2ccc3oc(=O)c(S(=O)(=O)c4ccccc4)cc3c2)cc1C, CCOC(=O)c1c(NC(C)=O)c2c3c(sc2n1Cc1ccc(Cl)cc1)CCCC3, CCOc1ccc(OC(=O)c2cn(-c3cccc(OC)c3)c(=O)c3ccccc23)cc1, CN(C)c1ccc(-c2nc3cnccn3c2Nc2cccc(C(F)(F)F)c2)cc1, COc1ccc2cc(-c3nc(Cl)c4c5c(sc4n3)CCCC5)c(=O)oc2c1, Cc1cccc(Nc2c(-c3cccs3)nc3nc(C)cc(C)n23)c1, CCc1ccc(CNC(=O)c2cc3c(=O)n(CC)c4ccccc4c3s2)cc1, CC1CCC(NC(=O)c2ccc3c(c2)N(Cc2ccccc2)C(=O)c2ccccc2S3(=O)=O)CC1 (stereo unspecified), COc1ccccc1CNC(=O)CCc1c(C)nc2c(c(C)nn2-c2ccc(C)c(C)c2)c1C, Cc1cccc(C(=O)N2CCc3cc(CNC(=O)c4ccc(Br)o4)ccc32)c1, COC(=O)c1cc(NC(=O)C2CCCN(S(=O)(=O)c3c(C)n[nH]c3C)C2)cc(C(=O)OC)c1 (stereo unspecified), COc1ccc(C)cc1NC(=O)Cn1c(=O)nc(-c2ccccc2F)c2cc(Cl)ccc21, CCOC(=O)c1c(C)[nH]c(CCC(=O)Nc2c(Cl)cc(OC)cc2OC)c1C, CCOC(=O)C1CCCN(S(=O)(=O)c2ccc3c(c2)CCN3C(=O)CC)C1 (stereo unspecified), COc1ccc(CNC(=O)Cn2c(=O)nc(-c3ccccc3F)c3cc(Cl)ccc32)cc1OC
